Source: article PMC4336329 (PLoS ONE, 2015)
Hit rate of the full screen: of about 310,000 compounds, about 2,200 (0.71%) showed an effect of 50% or more. Effects have a minus sign here. Some of the results follow.

Molecular target: human ether-à-go-go-related gene (hERG) potassium channel (human, UniProt Q12809)
Experiment: primary screen, population patch clamp on CHO cells stably expressing hERG

Chain of human ether-à-go-go-related gene (hERG) potassium channel (Q12809 whole entry, looked up): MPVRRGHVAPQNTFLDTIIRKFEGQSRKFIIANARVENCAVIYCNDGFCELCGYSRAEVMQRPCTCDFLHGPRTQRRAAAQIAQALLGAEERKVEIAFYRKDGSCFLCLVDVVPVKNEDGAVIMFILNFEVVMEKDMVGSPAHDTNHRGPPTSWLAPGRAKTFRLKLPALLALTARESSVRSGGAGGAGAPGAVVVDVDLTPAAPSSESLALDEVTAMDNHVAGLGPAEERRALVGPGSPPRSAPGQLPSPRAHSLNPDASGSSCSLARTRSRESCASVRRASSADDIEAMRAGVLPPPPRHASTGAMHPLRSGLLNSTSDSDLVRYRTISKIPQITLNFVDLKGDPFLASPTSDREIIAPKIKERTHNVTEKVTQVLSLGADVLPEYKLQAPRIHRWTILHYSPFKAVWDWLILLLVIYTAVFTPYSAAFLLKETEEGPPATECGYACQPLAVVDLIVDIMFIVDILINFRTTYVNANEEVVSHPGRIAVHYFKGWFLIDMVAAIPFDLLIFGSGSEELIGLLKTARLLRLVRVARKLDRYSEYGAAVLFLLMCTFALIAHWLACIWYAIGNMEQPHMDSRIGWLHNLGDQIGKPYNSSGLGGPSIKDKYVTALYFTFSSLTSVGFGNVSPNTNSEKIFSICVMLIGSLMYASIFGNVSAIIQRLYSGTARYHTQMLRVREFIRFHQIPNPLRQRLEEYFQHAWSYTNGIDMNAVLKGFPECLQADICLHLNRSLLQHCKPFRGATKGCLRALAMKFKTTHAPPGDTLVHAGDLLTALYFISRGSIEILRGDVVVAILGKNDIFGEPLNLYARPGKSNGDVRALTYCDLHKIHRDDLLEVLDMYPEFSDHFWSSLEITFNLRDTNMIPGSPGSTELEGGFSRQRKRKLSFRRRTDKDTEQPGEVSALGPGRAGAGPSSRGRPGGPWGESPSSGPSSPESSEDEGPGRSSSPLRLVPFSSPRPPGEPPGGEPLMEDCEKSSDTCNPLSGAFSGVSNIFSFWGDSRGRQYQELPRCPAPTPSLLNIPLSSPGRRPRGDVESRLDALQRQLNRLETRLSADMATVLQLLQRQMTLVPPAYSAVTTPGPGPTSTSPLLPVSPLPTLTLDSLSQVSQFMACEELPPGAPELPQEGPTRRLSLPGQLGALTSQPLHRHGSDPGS

| SMILES | hERG current change (%, negative = inhibition) at 1uM [%] |
| --- | --- |
| C=C(C)COc1ccc(-c2[nH]ncc2Oc2ccccc2OCC)c(O)c1 | -4.1 |
| O=S(=O)(N/N=C/c1ccccc1OCc1ccc(Cl)cc1)c1ccccc1 | -1.17 |
| CN(C)C=O.COc1ccccc1NC(=O)C1=C(C)NC(=O)NC1c1ccccc1[N+](=O)[O-] (centres unmarked) | 12.2 |
| COc1ccc(NC(=O)c2ccccc2C)cc1 | 11.7 |
| N#CCC(=O)NCC1(c2ccccc2)CCCC1 | 7.44 |
| Cc1nn(-c2ccccc2)c2nc(-c3ccccc3)cc(C(=O)N3CCOCC3)c12 | -6.42 |
| O=C(NC1CCN(Cc2ccccc2)CC1)c1cncc(Br)c1 | -27.2 |
| O=Cc1ccc(-c2cc(Cl)ccc2Cl)[nH]1 | 8.77 |
| Cc1cc(C(=O)NCCC(C)C)c2ccccc2n1 | 9.39 |
| COc1ccc(-c2nnc(SCc3ccccn3)n2C)cc1 | 5.7 |
| Cc1ccc(-c2[nH]n3c(=O)c4c(nc3c2C)CCCC4)cc1 | -4.72 |
| COc1cc(C2CC(c3cccnc3)=NN2c2ccc(F)cc2)cc(OC)c1OC (centres unmarked) | 2.7 |
| O=C(CCNC(=O)C1CCN(S(=O)(=O)c2ccccc2)CC1)NCc1ccc(Cl)cc1 | 8.81 |
| COc1ccc(C(CNC(=O)c2cccc(Br)c2)N2CCCC2)cc1 (centres unmarked) | 4.27 |
| CSc1nc(-c2ccccc2)c(-c2ccccc2)[nH]1 | 8.29 |
| Cc1cccc(C(=O)NNC2=CC(=O)CC(C)(C)C2)c1O | 10.4 |
| O=C1CCCc2ccccc2N1Cc1ccccc1 | 8.06 |
| Cc1cccc(OCC(=O)N/N=C\c2cc3c(cc2[N+](=O)[O-])OCO3)c1C | 1.2 |
| COC(C)(C)[C@@H](O)COc1c2ccoc2cc2oc(=O)ccc12 | 3.6 |
| CCCn1c(SCCN2CCOCC2)nc2c1c(=O)n(C)c(=O)n2C | 13.3 |
| CN(C(=O)C1CCN(c2ncnc3c2nc2n3CCCCC2)CC1)C1CCCCC1 | 2.14 |
| CC(C)(C)NC(=O)C(=O)N/N=C/c1ccc(Br)cc1 | 8.9 |
| O=Cc1cn(-c2ccc(F)cc2)c2ccccc12 | 9.86 |

| SMILES | hERG current change (%, negative = inhibition) at 1uM [%] |
| --- | --- |
| OC1CCN(C(=S)Nc2ccc(Oc3ccccc3)cc2)CC1 | 6.46 |
| CCOC(=O)C1(c2csc(N)n2)COC(=O)C1 (centres unmarked) | 7.3 |
| COc1ccc(OC)c(NC(=O)Nc2ccc(Cl)cc2)c1 | 8.82 |
| CN(Cc1cccnc1)C(=O)CNC(=O)COc1ccccc1 | 14 |
| Cc1ccc(NC(=S)NC(NC(=O)c2ccco2)C(Cl)(Cl)Cl)cc1 (centres unmarked) | 2.23 |
| O=C1CC[C@H](OCc2ccccc2)CCN1[C@H](CSc1ccccc1)Cc1ccccc1 | -10.6 |
| COC(=O)/C=C/c1ccc(-n2cncn2)cc1 | 12 |
| CCC(=O)NCCn1c(C)cc2ccccc21 | 8.84 |
| COc1ccc(S(=O)(=O)N2CCN(C(=O)C3CC3)CC2)cc1 | 13.7 |
| Cn1c(=O)c2c(nc(CN3CCOCC3)n2CCCO)n(C)c1=O | 15.2 |
| Cc1cc(NC(=O)COC(=O)c2ccco2)no1 | -3.74 |
| CC(C)c1csc(CN2CCC(CO)(Cc3ccccc3)CC2)n1 | 15.7 |
| Cc1ccc(CN(c2ccc(C(=O)NCc3ccc4c(c3)OCO4)cc2)S(C)(=O)=O)cc1 | 8.09 |
| O=C(O)COc1cccc(/C=C2/SC(=S)N(Cc3ccccc3)C2=O)c1 | 4.86 |
| Cc1ccc(S(=O)(=O)N2CCCC2)cc1C(=O)NCc1ccccc1CN1CCCC1 | -7.98 |
| COc1ccc(/C=N/n2cnnc2SCc2ccc(OC)cc2)cc1 | 6.43 |
| Cc1ccc(S(=O)(=O)N2CCCC(NC(=O)N3CCN(c4ccccc4)CC3)C2)cc1 (centres unmarked) | 1.92 |
| O=C1Nc2ccc(F)cc2C12Nc1ccccc1-c1nnc(SCc3ccccc3Cl)nc1O2 (centres unmarked) | 3 |
| COc1cccc(CNc2ccc(F)c(Cl)c2)c1O | -1.31 |
| CCOC(=O)c1c(-c2ccccc2)oc2cc(Br)c(O)c(C=O)c12 | 9.77 |
| COC(=O)Cc1ccc(NC(=S)N2CCN(c3ccc(OC)cc3)CC2)cc1 | 12.3 |
| O=c1cc(CN2CCCc3ccccc32)nc2sccn12 | -0.887 |
| CCCCCN(C(=O)CCC(=O)OCC(=O)N(CC)C1CCCCC1)c1c(N)n(CCCC)c(=O)[nH]c1=O | 13.5 |

| SMILES | hERG current change (%, negative = inhibition) at 1uM [%] |
| --- | --- |
| CCOC(=O)CSC1=C(C#N)C(c2ccc(C)s2)CC(=O)N1 (centres unmarked) | 6.23 |
| O=C(NCCCN1CCN(c2cccc(Cl)c2)CC1)c1cccc(N2CCCC2=O)c1 | -11.4 |
| O=C(CSc1nc2ccccc2[nH]1)NCc1ccco1 | 9.43 |
| Cc1cc(C)c(C(=O)CSc2n[nH]c(-c3ccncc3)n2)c(C)c1 | 15 |
| Cl.O=C(CCN1CCc2ccccc2C(O)(c2ccccc2)C1)c1ccc2c(c1)OCCO2 (centres unmarked) | 13.1 |
| O=C(NC(=S)NCc1ccccc1)c1ccccc1F | 4.85 |
| COc1cc(C(CCN2CCN(c3ccccc3)CC2)c2c(OC)cc(OC)c3ccc(=O)oc23)cc(OC)c1OC (centres unmarked) | 6.4 |
| COc1cc(/C=C2/NC(=O)NC2=O)ccc1OCC(=O)Nc1ccc(F)cc1 | 18.9 |
| O=C(c1cn(-c2ccccc2)nc1-c1ccccc1)N1CCOCC1 | 2.21 |
| CC(NC(=O)c1ccccc1F)c1nnc(SCC(=O)NC2CCCC2)n1C (centres unmarked) | 17.8 |
| CCOC(=O)CCCCC(=O)c1[nH]c(=O)[nH]c1CSc1nc(C)cc(C)n1 | 0.309 |
| C=C(C)C1CC=C(C)/C(=N/NC(=S)Nc2ccccc2)C1 (centres unmarked) | 19.5 |
| O=C(NCCc1csc(-c2ccccc2)n1)c1ccccc1F | -1.45 |
| COc1ccc(C2CC(=O)Nc3cc(C)c(C)cc32)c(OC)c1OC (centres unmarked) | 9.67 |
| CCSc1ncnc2sc3c(c12)CCC3 | 11.5 |
| COCCNC(=O)C1CCC(CNS(=O)(=O)c2ccccc2)CC1 (centres unmarked) | 10.5 |
| COc1cccc(CN2C(=O)c3ccccc3S2(=O)=O)c1 | 9.93 |
| Clc1ccc(-c2[nH]ncc2N=Nc2ccccc2)cc1 | 8.48 |
| CCCCOC(=O)c1sc2nc(N3CCOCC3)c3c(c2c1N)CC(C)(C)OC3 | 11.7 |
| Cc1ccc2nc(NC(=O)C3CSC4(C)CCC(=O)N34)sc2c1 (centres unmarked) | 7.78 |
| COC(=O)C1=C(c2ccc(OC)c(OC)c2)C[C@@H]2CC[C@H]1N2C(=O)NCCNC(C)=O | 12.2 |
| Cc1oc(-c2ccccc2)cc1C(=O)Nc1ccccc1 | -10.7 |
| Cc1cc(C(=O)N(Cc2nnc(-c3ccc(Cl)cc3)o2)C(C)C)c2ccccc2n1 | -16.3 |

| SMILES | hERG current change (%, negative = inhibition) at 1uM [%] |
| --- | --- |
| CCOc1ccc(CN(C)C(=O)c2ccc(NC(=O)CC3SC(N4CCCC4)=NC3=O)cc2)cc1 (centres unmarked) | 12.6 |
| Nc1nc(-c2ccccc2)c(-c2ccccc2)n1N | 13.2 |
| Cc1nn(-c2ccccc2)c(C)c1/C=N/NC(=O)c1ccccc1O | 9.16 |
| CN(C)S(=O)(=O)N1CCN(c2ccc([N+](=O)[O-])c(N3CCOCC3)c2)CC1 | 6.47 |
| Cc1cc(=O)oc2c3c(cc(OCC(=O)N[C@@H](C)C(=O)O)c12)OC(C)(C)CC3 | 7.24 |
| Cn1cccc1/C=N/NC(=O)Cc1cccs1 | 11.4 |
| O=C1c2ccccc2C(=O)C1c1ccnc2ccccc12 | 11.7 |
| O=C(c1nc2ncccn2n1)N1CCN(c2ccccc2)CC1 | 10.5 |
| COc1ccccc1-c1nn(Cc2ccccc2)cc1C(=O)NCC(c1ccco1)N1CCCC1 (centres unmarked) | -9.9 |
| CCc1cc2c3c([nH]c2cc1S(=O)(=O)N1CCC2(CC1)OCCO2)CCCC3=O | 17.4 |
| O=C(CSc1ncc(-c2ccccc2)n1CC1CCCO1)N1CCCCC1 (centres unmarked) | 16.7 |
| CN(C)S(=O)(=O)c1ccc(S(=O)(=O)N(CC(=O)Nc2ccccc2)Cc2ccco2)cc1 | 14 |
| CN(/N=C/c1ccc(-c2ccc([N+](=O)[O-])cc2)o1)c1ccccc1 | 13.6 |
| CCn1c2ccccc2c2cc(NC(=O)CSc3nnc(-c4cccc(F)c4)o3)ccc21 | 5.9 |
| COC(=O)c1ccc(CN(c2ccc(C)cc2)S(=O)(=O)c2ccc3c(c2)OCCO3)o1 | 9.85 |
| COCCN(C(=O)CSc1n[nH]c(-c2ccccc2)n1)c1c(N)n(CC(C)C)c(=O)[nH]c1=O | 24.5 |
| O=C(CC1(O)C(=O)N(CCc2ccccc2)c2ccccc21)c1ccccn1 (centres unmarked) | 13.5 |
| Cc1cc(C(=O)Cn2cnc3cc([N+](=O)[O-])ccc3c2=O)c(C)n1CC1CCCO1 (centres unmarked) | 10 |
| Cc1onc(-c2ccccc2)c1C(=O)OCC(=O)Nc1ccc(C#N)cc1 | 4.46 |
| CC1=CC(=O)C=C(C)C1=NOc1ccccc1[N+](=O)[O-] | 7.38 |
